Experimental data published in paper PMC6919601, “Identification of Plasmodium dipeptidyl aminopeptidase allosteric inhibitors by high throughput screening” (PLoS ONE, 2019).
Out of some 110,000 compounds screened, about 230 (0.21%) showed an effect of 50% or more. Some of the results follow.

Each molecule was assayed against DPAP1 (Plasmodium falciparum, UniProt Q8IIJ9) (assay: primary screen, percent inhibition; read by cleavage of a fluorogenic dipeptide substrate; higher = more effect of the substance).
Chain of DPAP1 (Q8IIJ9 whole entry, looked up): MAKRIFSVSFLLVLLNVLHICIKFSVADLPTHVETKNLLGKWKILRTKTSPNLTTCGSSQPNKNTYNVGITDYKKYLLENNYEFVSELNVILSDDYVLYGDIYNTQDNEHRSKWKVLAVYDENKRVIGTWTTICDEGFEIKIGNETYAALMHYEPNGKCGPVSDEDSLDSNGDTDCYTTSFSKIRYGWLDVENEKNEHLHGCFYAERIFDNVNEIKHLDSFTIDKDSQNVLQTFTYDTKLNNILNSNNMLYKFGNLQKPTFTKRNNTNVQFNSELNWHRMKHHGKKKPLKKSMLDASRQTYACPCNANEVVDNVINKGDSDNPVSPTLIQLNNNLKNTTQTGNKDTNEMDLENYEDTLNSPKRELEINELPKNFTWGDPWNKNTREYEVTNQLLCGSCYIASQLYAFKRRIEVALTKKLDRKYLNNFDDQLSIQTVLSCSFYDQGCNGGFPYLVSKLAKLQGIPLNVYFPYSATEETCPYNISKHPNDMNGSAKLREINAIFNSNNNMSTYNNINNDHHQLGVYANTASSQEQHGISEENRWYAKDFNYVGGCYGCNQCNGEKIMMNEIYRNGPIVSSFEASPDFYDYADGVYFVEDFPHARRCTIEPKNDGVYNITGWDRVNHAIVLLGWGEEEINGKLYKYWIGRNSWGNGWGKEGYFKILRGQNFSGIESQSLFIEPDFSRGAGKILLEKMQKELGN
Parameters: species or system P. falciparum D10 trophozoite lysates; single well
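Note: 30 min substrate incubation versus DMSO and 10 µM JCP410 controls.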

Compound | % Inhibition @ 10 uM [%]
Cc1ccc(-c2cc(C(=O)Nc3ccc(C(N)=O)cc3)c3ccccc3n2)cc1 | -6.02
COc1ccc(NC(=O)CSCC(=O)Nc2ccccc2Cl)cc1 | -0.883
O=C(O)c1cccc(CN2C(=O)S/C(=C/c3ccc(O)cc3)C2=O)c1 | 3.03
O=C1S/C(=C\c2cccs2)C(=O)N1Cc1ccc(F)cc1 | -3.13
Cc1ccc(C(O)C#CC23CC4CC(CC(C4)C2)C3)o1 (stereo not shown) | -0.725
Cc1ccc(CNC(=O)C2CCN(S(=O)(=O)N3CCC4(CC3)OCCO4)CC2)cc1 | -1.21
CC(C)(C)c1ccc(S(=O)(=O)N(CCCN2CCOCC2)Cc2cccs2)cc1 | 2.05
COc1cc(/C=C2\SC(Nc3ccc(Cl)cc3)=NC2=O)cc(OC)c1OC | 1.05
CC(O)CN(CC1=CC[C@H]2C[C@@H]1C2(C)C)CC(C)O (stereo partly shown) | 3.68
CC(Oc1ccccc1)C(=O)Nc1ccc(Br)cc1 (stereo not shown) | 0.843
N#CC1=C(N)N(c2cccc(Cl)c2)C2=C(C(=O)CCC2)C1c1ccc2c(c1)OCO2 (stereo not shown) | 0.536
CCCNC(=O)CCc1nc(-c2ccccc2C)no1 | -3.12
CN(CC(=O)NC1CCCc2ccccc21)S(=O)(=O)c1ccc2[nH]c(-c3ccccc3)nc2c1 (stereo not shown) | -1.67
O=c1oc2ccccc2c2nccnc12 | -8.01
c1ccc(CNc2nc(-c3ccccc3)cc(-c3ccccc3)n2)cc1 | -4.5
O=C(NCc1cccnc1)c1ccccc1F | -1.25
Cc1ccc(-c2nnc(N3CCN(C(=O)C4CCCCC4)CC3)c3ccccc23)cc1 | -2.75
O=C(O)CC1Nc2ccccc2NC1=O (stereo not shown) | -4.35
O=C(CCn1cnc2onc(-c3ccc(F)cc3)c2c1=O)NCc1cccnc1 | -4.97
O=C(O)C1Cc2c([nH]c3ccccc23)C(c2cccc(Cl)c2Cl)N1 (stereo not shown) | -1.8
COc1cc(OC)cc(-n2nnc(-c3nc(-c4ccccc4C)no3)c2N)c1 | -2.72
Cn1c(=O)c2c(nc(N3CCOCC3)n2C)n(C)c1=O | 0.182
CCOC(=O)C1CCN(Cc2ccc(F)cc2)CC1 | -0.127
C/C(=N\c1ccc2ccccc2c1)C1=C(O)CCCC1=O | -11.4
CCOCCCNC(=O)c1ccc2nc(N3CCC(C)CC3)sc2c1 | 2.65
Cc1c(-c2nsc(NC(=O)c3ccccc3)n2)nnn1-c1cccc(C(F)(F)F)c1 | 0.573
CCOc1ccc(N2C(=O)CC(NCCc3ccccc3)C2=O)cc1 (stereo not shown) | -11
O=C(/C=C/c1cccc([N+](=O)[O-])c1)Nc1cccc(Cl)c1 | -3.94
